# Data taken from PubChem BioAssay AID624417 (National Center for Advancing Translational Sciences (NCATS), 2012).
# The campaign covered roughly 410,000 compounds. About 6,400 (1.6%) were called active. The inconclusive results got no clear call from the source; some entries with a clear call stand among them for comparison. Calls follow the shape of the dose curve; as a rule, active = well fitted inhibition curve with a large enough effect; inconclusive = small, poorly fitted or top-dose-only effect; inactive = no such curve, though single readings can be large or run the other way. No potency is given beside an inconclusive call; the fits are too rough.
# Target: Glucagon-like peptide 1 receptor (Homo sapiens) (UniProt P43220)
# Assay: qHTS of GLP-1 Receptor Inverse Agonists (Inhibition Mode); also: nearly all actives have a fitted effect of over 55% in size
# Settings: HEK293 GLP-1R CRE-luciferase, luminescence, 24 h, GLP-1R form is constitutively active; series mostly up to 38.3 µM
# How it was run: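 Inverse agonists were sought by their lowering of basal cAMP reporter luciferase output in HEK293 cells stably carrying constitutively active human GLP-1R, after 24 h compound treatment.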
# Potency is read from the fitted curve at half-maximal effect; tags tell the direction and shape of the fitted curve.
# Sequence of UniProt P43220 (P43220 whole entry, looked up): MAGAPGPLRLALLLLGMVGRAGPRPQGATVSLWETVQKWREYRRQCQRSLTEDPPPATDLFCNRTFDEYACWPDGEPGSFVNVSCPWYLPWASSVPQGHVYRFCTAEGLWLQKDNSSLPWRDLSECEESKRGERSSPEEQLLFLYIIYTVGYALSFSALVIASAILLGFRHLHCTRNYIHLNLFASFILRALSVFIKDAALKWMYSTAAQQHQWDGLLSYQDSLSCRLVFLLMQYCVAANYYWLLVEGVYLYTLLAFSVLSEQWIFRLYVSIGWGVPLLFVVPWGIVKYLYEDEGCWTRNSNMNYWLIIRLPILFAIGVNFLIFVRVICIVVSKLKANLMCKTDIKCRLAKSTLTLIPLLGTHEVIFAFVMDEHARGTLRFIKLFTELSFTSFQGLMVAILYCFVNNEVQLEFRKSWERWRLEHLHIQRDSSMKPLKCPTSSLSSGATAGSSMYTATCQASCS
row,SMILES,Potency
1,COc1ccc(/C=C/c2nc3ccccc3n2Cc2ccc(OC)c(OC)c2)cc1,"inconclusive [inhibitor, single point]"
2,Cc1ccccc1N=C1NC(=O)/C(=C/c2cccn2C)S1,"inconclusive [inhibitor, single point]"
3,Cn1cc(C(=O)O)c(=O)c2cc(S(=O)(=O)N3CCCCC3)ccc21,"inconclusive [inhibitor, partial curve, poor fit]"
4,CCOc1ccc(C(C)C)cc1S(=O)(=O)Nc1cccc(-c2ccc(N3CCOCC3)nn2)c1,inactive
5,CCN(CC)C(=O)[C@H]1CC(CC(=O)NCC23CC4CC(CC(C4)C2)C3)C(=O)N2CCc3c([nH]c4ccc(OC)cc34)[C@]12C (stereo partly specified),"inconclusive [inhibitor, single point]"
6,Cc1ccc(C(C)C)c(OCC(=O)Nn2c(=O)[nH]c3ccccc3c2=O)c1,"inconclusive [inhibitor, partial curve, poor fit]"
7,Cc1ccc(NC(=O)C(Cc2ccccc2)NS(=O)(=O)c2ccc3c(c2)c(=O)n(C)c(=O)n3C)cc1 (stereo unspecified),inactive
8,Cc1cc(NC(=O)CSc2cn(CCNC(=O)c3ccc(F)cc3)c3ccccc23)no1,"inconclusive [inhibitor, single point]"
9,COc1ccc(CCNC(=O)C(=O)NCC2OCCN2S(=O)(=O)c2ccc(C)cc2)cc1 (stereo unspecified),"inconclusive [inhibitor, single point]"
10,CCC(C)c1ccc(NC(=S)N2CCN(S(C)(=O)=O)CC2)cc1 (stereo unspecified),"inconclusive [inhibitor, single point]"
11,CCCC(=O)Oc1c(Sc2ccc(Cl)cc2)c(C)nn1-c1ccccc1,"inconclusive [inhibitor, single point]"
12,COC(=O)c1ccc(N2CCN(S(=O)(=O)c3ccc(C)cc3)CC2)c([N+](=O)[O-])c1,"inconclusive [inhibitor, single point]"
13,CCOc1ccc2oc(C(=O)Nc3ccc4c(c3)OCO4)c(C)c2c1,"inconclusive [inhibitor, single point]"
14,C=CCN(CC(O)c1cccc([N+](=O)[O-])c1)C(C)CCc1ccccc1 (stereo unspecified),"inconclusive [inhibitor, single point]"
15,C[C@@H](OC(=O)c1[nH]cnc1C(=O)NCc1ccc(CNC(=O)OC(C)(C)C)cc1)c1ccccc1,"inconclusive [inhibitor, single point]"
16,O=C(CSc1nc2ccccc2c(=O)n1Cc1ccco1)N1CCCCCC1,"inconclusive [inhibitor, partial curve, poor fit]"
17,CCN(CC)CCNC(=O)c1cn(-c2ccccc2)nc1-c1cccs1,"inconclusive [inhibitor, partial curve, poor fit]"
18,CC(C)Oc1ccc2ccccc2c1C=O,inactive
19,CCC(=O)Nc1ccccc1-c1nc2ccccc2n(C(CC)C(=O)Nc2cccc(C(C)=O)c2)c1=O (stereo unspecified),inactive
20,CCCCN(CC)CCCn1cnc2c([nH]c3ccc(Cl)cc32)c1=O,inactive
21,CCCCC(=O)N/N=C(\C)CC(=O)Nc1ccccc1Br,"inconclusive [inhibitor, single point]"

row,SMILES,Potency
1,CC(C)(C)C1CCc2nc(NC(=O)COc3ccc(F)cc3)sc2C1 (stereo unspecified),"inconclusive [inhibitor, partial curve, poor fit]"
2,CCc1ccccc1N1CC(c2nc3ccccc3n2CC(C)C)CC1=O (stereo unspecified),"inconclusive [inhibitor, partial curve]"
3,Cc1ccc(-c2csc(C(O)(c3ccccc3)C(F)(F)F)n2)cc1C (stereo unspecified),"inconclusive [inhibitor, single point]"
4,COCCNc1nc(Oc2cccc3ccccc23)c2sccc2n1,inactive
5,COc1ccc(C2C(C#N)=C3NC(=O)c4c(sc5c4CCCCC5)N3C3=C2C(=O)CC(C)(C)C3)cc1 (stereo unspecified),"inconclusive [inhibitor, full curve]"
6,COc1ccc(NC(=O)C2(C)CCN2Cc2csc3ccccc23)cc1OC (stereo unspecified),"inconclusive [inhibitor, single point]"
7,O=C(NC1CCCC1)C(c1ccc(F)cc1)N(Cc1ccc(Cl)cc1)C(=O)CCl (stereo unspecified),"inconclusive [inhibitor, partial curve, poor fit]"
8,CCOC(=O)Nc1ccc2c(CNC(C)c3ccccc3OC)cc(=O)oc2c1 (stereo unspecified),"inconclusive [inhibitor, partial curve, poor fit]"
9,COc1cccc(CC2(CO)CCCN(CC3=Cc4cc(OC)ccc4OC3)C2)c1 (stereo unspecified),"inconclusive [inhibitor, single point]"
10,Cc1cc2oc(C(=O)N(Cc3ccccc3)C3CCS(=O)(=O)C3)c(C)c2cc1C (stereo unspecified),"inconclusive [inhibitor, single point]"
11,O=C(Nc1ccc(N2CCCCCC2)cc1)c1ccccc1Cl,"inconclusive [inhibitor, partial curve, poor fit]"
12,CCc1ccccc1NC(=O)CCC(=O)c1cccs1,inactive
13,Cc1ccc(-c2onc(C)c2C)cc1S(=O)(=O)N1CC(C)Oc2ccccc21 (stereo unspecified),"inconclusive [inhibitor, single point]"
14,Cc1csc(N(C)C(=O)CSc2nnc(COc3cccc4ccccc34)o2)n1,"inconclusive [inhibitor, partial curve, poor fit]"
15,O=C(CSc1nc2scc(-c3ccccc3)c2c(=O)[nH]1)Nc1ccccc1,"inconclusive [inhibitor, single point]"
16,CC(C)c1ccc(Nc2cc(C(=O)NCCc3ccccc3)c3ccccc3n2)cc1,inactive
17,COc1ccccc1C(=O)NCCC(=O)N1CC=C(c2ccccc2)CC1,"inconclusive [inhibitor, partial curve, poor fit]"
18,Cc1ccc(-n2c(C)cc(C(=O)COc3cccnc3[N+](=O)[O-])c2C)cc1,"inconclusive [inhibitor, partial curve, poor fit]"
19,CCc1cccc2c(C(=O)COC(=O)c3ccc(O)cc3)c[nH]c12,"inconclusive [inhibitor, partial curve, poor fit]"
20,Cc1ccccc1CN1CCc2cc([N+](=O)[O-])ccc21,"inconclusive [inhibitor, single point]"
21,Cc1ccc(CSc2nc3ccncc3[nH]2)cc1,"inconclusive [inhibitor, partial curve, poor fit]"

row,SMILES,Potency
1,Cc1ccccc1C1CC(=O)c2ccccc2C1C (stereo unspecified),"inconclusive [inhibitor, partial curve, poor fit]"
2,Cc1cc(=O)[nH]c(=S)n1-c1ccccc1,inactive
3,CCC(=O)NC(=S)Nc1ccc(NC(=O)COc2ccc([N+](=O)[O-])cc2)cc1,inactive
4,COc1ccc(Cc2c(-c3ccc(OC)c(OC)c3)nc3cc(C)c(Br)c(C)n23)c(C)c1,"inconclusive [inhibitor, single point]"
5,O=C(CSc1nnc(Cc2ccccc2)o1)c1ccc2c(c1)OCO2,"inconclusive [inhibitor, partial curve]"
6,Cc1ccc(S(=O)(=O)N2CC=C(c3ccc(F)cc3)CC2)cc1,"inconclusive [inhibitor, single point]"
7,CCc1ccc(N2C(=O)c3ccc4c5c(ccc(c35)C2=O)CC4)cc1,inactive
8,Cc1cc(Cl)c(S(=O)(=O)N2CCN(c3cccc(C)c3C)CC2)cc1OCC(N)=O,"inconclusive [inhibitor, single point]"
9,Cc1ccc(NC(=O)CCNC(=O)c2ccc(Br)cc2)cc1S(=O)(=O)N1CCCCCC1,"inconclusive [inhibitor, single point]"
10,CCOc1ccc(CCNC(=O)CCc2cn(Cc3ccc(C)cc3)c3ccccc23)cc1,"inconclusive [inhibitor, partial curve, poor fit]"
11,Cc1cc(SCC(=O)c2cccs2)n2nc(C)c(-c3ccccc3)c2n1,"inconclusive [inhibitor, full curve, poor fit]"
12,Cc1ccc(CN2CCN(Cc3ccc(-n4cccn4)cc3)CC2CCO)cc1 (stereo unspecified),"inconclusive [inhibitor, partial curve]"
13,Cc1cc(OC(=O)N2CCCCC2)cc(C)c1Cl,"inconclusive [inhibitor, partial curve, poor fit]"
14,CC(C)c1ccc(/C=N/n2nnnc2Nc2ccccc2)cc1,"inconclusive [inhibitor, single point]"
15,OC(COc1ccc(OCC(O)CN2CCCCC2)cc1)CN1CCCCC1 (stereo unspecified),"inconclusive [inhibitor, partial curve, poor fit]"
16,CN(C)c1ccc(C(c2ccc(N(C)C)cc2)C(O)c2ccccc2)cc1 (stereo unspecified),"inconclusive [inhibitor, single point]"
17,Cc1cccc(N2CCN(C(=O)c3ccc(-n4cncn4)c([N+](=O)[O-])c3)CC2)c1C,"inconclusive [inhibitor, partial curve, poor fit]"
18,O=C(c1ccc2c(Cl)c3c(nc2c1)CCCC3)N1CCC(N2CCCCC2)CC1,"inconclusive [inhibitor, partial curve, poor fit]"
19,CC1CC(C)CN(CC(=O)NNC(=O)COc2ccc(Cl)cc2)C1 (stereo unspecified),"inconclusive [inhibitor, single point]"
